# Data reported in paper PMC4336329 (PLoS ONE, 2015).
# Screen size: about 310,000 compounds; about 14,000 (4.5%) showed an effect of 50% or more. Effects have a minus sign here. Some of the results follow.
# Target: human ether-à-go-go-related gene (hERG) potassium channel (human, UniProt Q12809)
# Assay: primary screen, population patch clamp on CHO cells stably expressing hERG
# 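Also: peak tail current of the secondary pulse compared with the same well before compound.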
# Sequence of human ether-à-go-go-related gene (hERG) potassium channel (Q12809 whole entry, looked up): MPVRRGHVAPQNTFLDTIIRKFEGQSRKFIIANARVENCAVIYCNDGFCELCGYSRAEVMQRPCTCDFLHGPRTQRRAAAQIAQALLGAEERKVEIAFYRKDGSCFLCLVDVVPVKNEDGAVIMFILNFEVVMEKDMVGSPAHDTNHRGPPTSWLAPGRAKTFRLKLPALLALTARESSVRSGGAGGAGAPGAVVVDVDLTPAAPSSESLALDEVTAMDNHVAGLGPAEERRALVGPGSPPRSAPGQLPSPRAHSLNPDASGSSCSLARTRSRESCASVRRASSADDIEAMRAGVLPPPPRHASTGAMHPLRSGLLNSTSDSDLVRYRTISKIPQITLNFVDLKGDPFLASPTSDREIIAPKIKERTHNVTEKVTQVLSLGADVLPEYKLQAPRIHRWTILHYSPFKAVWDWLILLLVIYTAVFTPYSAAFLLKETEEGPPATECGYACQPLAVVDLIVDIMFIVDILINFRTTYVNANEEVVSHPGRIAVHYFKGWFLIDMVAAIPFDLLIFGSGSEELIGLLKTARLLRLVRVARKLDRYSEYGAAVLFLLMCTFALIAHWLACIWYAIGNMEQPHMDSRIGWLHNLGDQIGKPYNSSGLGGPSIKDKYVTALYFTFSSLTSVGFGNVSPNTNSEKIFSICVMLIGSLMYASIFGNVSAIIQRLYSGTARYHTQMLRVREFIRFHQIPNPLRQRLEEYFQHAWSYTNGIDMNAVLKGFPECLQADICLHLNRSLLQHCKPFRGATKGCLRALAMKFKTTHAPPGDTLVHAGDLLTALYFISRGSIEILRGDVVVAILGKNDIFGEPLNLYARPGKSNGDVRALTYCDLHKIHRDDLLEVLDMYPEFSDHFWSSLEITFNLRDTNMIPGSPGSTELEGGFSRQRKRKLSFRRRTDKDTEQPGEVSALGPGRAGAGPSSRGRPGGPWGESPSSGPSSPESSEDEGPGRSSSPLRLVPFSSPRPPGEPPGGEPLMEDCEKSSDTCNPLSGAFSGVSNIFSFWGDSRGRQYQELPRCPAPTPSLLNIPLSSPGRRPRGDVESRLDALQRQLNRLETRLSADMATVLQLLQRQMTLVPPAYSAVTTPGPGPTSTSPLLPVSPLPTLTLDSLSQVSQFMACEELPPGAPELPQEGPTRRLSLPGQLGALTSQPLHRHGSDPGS
row,Compound,"hERG current change (%, negative = inhibition) at 10uM"
1,N#CCSc1nnc(CNc2cccc(Cl)c2)o1,5.28%
2,O=[N+]([O-])c1c(NCCCO)cc(Sc2nc3ccccc3s2)c2nonc12,7.09%
3,O=C(COc1ccc(Cl)cc1)NCc1nnc(SCC(=O)Nc2ccc3c(c2)OCCO3)o1,-5.01%
4,Cc1cc(=O)oc(C)c1C(=O)NCCc1ccc(F)cc1,-6.33%
5,CCOc1ccc(OCCCCn2cnc3ccccc3c2=O)cc1,19.2%
6,Cc1cccc(-c2nsc(SCC(=O)NCc3ccc4c(c3)OCO4)n2)c1,-2.14%
7,CCCCOC(=O)c1ccc(NC(=O)C(=O)NCc2ccncc2)cc1,-8.29%
8,C=CCN1C(=O)c2ccc(C(=O)NCC(c3ccccc3)N(C)C)cc2C1=O (stereo not drawn),5.78%
9,CCn1ncc(Cl)c1C(=O)Nc1cc([N+](=O)[O-])ccc1OC,2.58%
10,C=CCNCCOCCSc1ccc(Cl)cc1.O=C(O)C(=O)O,-28.9%
11,NC(=O)C1CCN(C(=O)CC2C(=O)NCCN2Cc2cccc(Oc3ccccc3)c2)CC1 (stereo not drawn),9.11%
12,COc1ccc(N=C2CCCN2CC(N)=O)cc1.Cl,-0.486%
13,COc1ccc(C(=O)Nc2cc3c4c(c2)C(C)C(=O)N4CCC3)cc1OC (stereo not drawn),-4.01%
14,CC1c2ccsc2CCN1S(=O)(=O)c1cccs1 (stereo not drawn),-13.2%
15,CCN1CCN(CCNC(=O)c2ccc(/C=C3/Sc4ccccc4N(Cc4cccc(Cl)c4)C3=O)cc2)CC1,11.4%
16,CCOc1ccccc1NC(=O)c1cc(S(=O)(=O)N2CCC3(CC2)OCCO3)ccc1F,-6.07%
17,C=C1CCN([C@H](C(=O)Nc2ccc(OC)cc2)C(C)C)S(=O)(=O)c2ccccc21,-8.73%
18,COc1ccc(Cl)c2sc(N3CCN(C(=O)C4=COCCO4)CC3)nc12,-15.7%
19,CCOc1cccc2sc(N(CCN(CC)CC)C(=O)c3ccc(S(=O)(=O)N4CCCC4)cc3)nc12.Cl,-24.2%
20,CCn1cc(C(=O)N2CCCC2)c(=O)c2cc(S(=O)(=O)N3CCOCC3)ccc21,19.1%
21,Nc1ccc(C(=O)OCc2nc3cc4ccccc4cc3[nH]2)cc1,-11.2%

row,Compound,"hERG current change (%, negative = inhibition) at 10uM"
1,CCOC(=O)c1sc(NC(=O)c2cc3n(n2)C(C(F)(F)F)CC(c2cccs2)N3)c(C(=O)OCC)c1C (stereo not drawn),2.85%
2,COCCNC(=O)CCc1c(C)nc2c(c(C)nn2-c2ccc(C)c(C)c2)c1C,-3.85%
3,Cc1cccc(OCC(=O)O/N=C(\N)c2ccccn2)c1,9%
4,Cc1ccccc1C(=O)c1cccn1CC(=O)NC(C)c1ccccc1 (stereo not drawn),5.18%
5,CCCCn1c(N)c(N(CCC(C)C)C(=O)c2cc(-c3ccco3)nc3ccccc23)c(=O)[nH]c1=O,7.31%
6,CCOC(CNC(=O)C1CCN(S(=O)(=O)c2ccc3nc4c(c(C(=O)O)c3c2)CC(C)CC4)CC1)OCC (stereo not drawn),0.872%
7,COc1ccc2[nH]c(C(=O)N/N=C/c3ccccc3OC)cc2c1,-3.5%
8,O=C(NC(=S)Nc1ccc(CN2CCOCC2)cc1)c1ccccc1[N+](=O)[O-],3.04%
9,Cc1c(N=C2NC(=O)C(CC(=O)Nc3ccccc3)S2)c(=O)n(-c2ccccc2)n1C (stereo not drawn),-0.455%
10,CN(Cc1ccccc1)C(=O)c1[nH]cnc1C(=O)N[C@@H](Cc1ccccc1)C(=O)OCc1ccccc1,4.63%
11,COc1ccc(C(=O)NC(=O)Nc2cc(C)ccn2)cc1,3.99%
12,N#Cc1cccc(C#N)c1N1CCC(C#N)CC1,8.14%
13,O=[N+]([O-])c1ccc(N2CCN(Cc3cccc([N+](=O)[O-])c3)CC2)cc1,-71.8%
14,CC(=O)N1N=C2c3ccccc3CCC2C1c1cccs1 (stereo not drawn),-2.38%
15,CCn1c(SC)nnc1C1CCCN(CC(=O)Nc2ccccc2N2CCOCC2)C1 (stereo not drawn),-5.55%
16,CC(=O)Nc1ccc(C(=O)CSc2ncn(-c3ccccc3)n2)cc1,5.72%
17,CCC1(c2ccc(F)cc2)NC(=O)N(CC(=O)N2CCc3ccccc3C2)C1=O (stereo not drawn),-7.25%
18,CCCOC(=O)Nc1ccc(N2CCCCC2)cc1,-11.7%
19,COc1ccc(S(=O)(=O)c2nnn(-c3cccc(Cl)c3)c2N)cc1,6.97%
20,O=C1c2ccccc2NC(c2ccc(-c3cccs3)o2)N1O (stereo not drawn),-4.21%
21,COC(=O)C1=C(C)N(Cc2ccccc2)C(=O)N[C@H]1c1cccs1,-8.13%
